# Measurements: the RNAGym collection of RNA variant scans (doi:10.1101/gad.245936.114)
# Variants at the floor of the assay are shown more often than the library holds them.
# B1: tRNA (parent)
# chain: CUCUCGGUAGCCAAGUUGGUUUAAGGCGCAAGACUUUAAUUUAUCACUACGAAAUCUUGAGAUCGGGCGUUCGACUCGCCCCCGGGAGAUUUUUUCCUCGAGCAA
# Variants of: B1
# Assay: nonsense suppression (GFP-seq) (ratio to wild type); higher = more function; SUP4oc tRNA, yeast GFP reporter sort-seq
# How it was run: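 Raffinose/galactose medium with 80 mg/L adenine was used to grow yeast carrying genome-integrated tRNA variants (~3% random-mutation library), RFP, and a galactose-driven GFP ochre reporter. Cells went into GFP/RFP bins, which were Illumina-sequenced, and variants with ≥100 reads and ≥30 cells were scored. Nonsense suppression (GFPSEQ) is the per-bin median GFP/RFP weighted by estimated cell share and expressed relative to the unmutated parent tRNA.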
row,Variant,nonsense suppression
1,G6C A23G A24C A54C U76G G78U,≤ 0.026
2,C5U U8C U20G,≤ 0.026
3,G6A U20A A23C G65U,≤ 0.026
4,G6U U55G,≤ 0.026
5,G6C C12G C72G C75U G85C,≤ 0.026
6,G6U U17G U20G C64G G69C,≤ 0.026
7,G6A G65C G78A,≤ 0.026
8,C5U U8C C11G C27G C83G,≤ 0.026
9,C5U G7A G61C,≤ 0.026
10,G6U A23U G65A C72U,≤ 0.026
11,G6C C34G G59C U63C U70C,≤ 0.026
12,G6U C75A,≤ 0.026
13,G6U C75U,≤ 0.026
14,G6A U8C G85A,≤ 0.026
15,G6A G15C,≤ 0.026
16,C5U U22C A23U G26C C27U,≤ 0.026
17,G6U A33C,≤ 0.026
18,G6A G19C G84U,≤ 0.026
19,G6A C83G G86U,≤ 0.026
20,C5U G88A,≤ 0.026
21,G6U C29G G59C U76G,≤ 0.026

row,Variant,nonsense suppression
1,C5U U17A G88C,≤ 0.026
2,C5U U57G C79A,≤ 0.026
3,C5U G7A C77U,≤ 0.026
4,C5U G7A C77G,≤ 0.026
5,G6C G10U G26A G65C,≤ 0.026
6,G6A A30C,≤ 0.026
7,G6C A31G A33U A60C G69U,≤ 0.026
8,C5U U55C G84U,≤ 0.026
9,G6C G28A U55C,≤ 0.026
10,G6A A62U U63G,≤ 0.026
11,G6A C64G,≤ 0.026
12,C5U G28C A31U,≤ 0.026
13,G6A U16G G32U A62U,≤ 0.026
14,C5U U22C U57C A74C,≤ 0.026
15,G6U A87C G88C,≤ 0.026
16,G6U G18C G25A,≤ 0.026
17,C5U G6U G7A,≤ 0.026
18,G6U A14U,≤ 0.026
19,C5U G25U A30U,≤ 0.026
20,G6A G15U C29G,≤ 0.026
21,G6C G7C U57C G61C,≤ 0.026

row,Variant,nonsense suppression
1,G6C U57C G59U,≤ 0.026
2,G6U G7C U17C,≤ 0.026
3,G6C G26U G59C A60U,≤ 0.026
4,G6A G10A G19C A54U G73C G88U,≤ 0.026
5,G6A G66A G67C,≤ 0.026
6,C5U G66C G69C,≤ 0.026
7,C5U G28C A30G A33U,≤ 0.026
8,G6A G15U U22C G26U A31U U58A,≤ 0.026
9,C5U U8A A9C G10C C12U G25U A31G,≤ 0.026
10,G6U G61U A74G G86C,≤ 0.026
11,G6U G7U U22A U35G C81A,≤ 0.026
12,C5U U57A U63A,≤ 0.026
13,C5U U22G G28C G61U U71G,≤ 0.026
14,C5U U57C G65A,≤ 0.026
15,G6C G19U,≤ 0.026
16,G6C G19C,≤ 0.026
17,G6A A13C A23C C34U A62G A89C,≤ 0.026
18,G6U U55A G85U G86A,≤ 0.026
19,G6C G59U C79A,≤ 0.026
20,G6A U8C C29U A62C,≤ 0.026
21,G6U U21G G61C,≤ 0.026

row,Variant,nonsense suppression
1,G6A G32C A33G U35A C81G,≤ 0.026
2,G6A G67A G73U,≤ 0.026
3,G6A A9U A87G,≤ 0.026
4,G6A A9U A87U,≤ 0.026
5,G6C U55C A62C G66U C75G,≤ 0.026
6,G7A A9U A14C G73U,≤ 0.026
7,G6U G69C C77A,≤ 0.026
8,C5U U63A,0.0305
9,G6A G28C G32A A60G,≤ 0.026
10,C5U G7A U20G,≤ 0.026
11,G6U C27G,≤ 0.026
12,G6A U57C,≤ 0.026
13,G6U U17A A33C,≤ 0.026
14,C5U U8A U35C U70G C80U,≤ 0.026
15,G7A A9G C12G A14G,≤ 0.026
16,G6A G67A,≤ 0.026
17,G6U G10U A24C C29G A31G,≤ 0.026
18,C5U G65U U76A,≤ 0.026
19,C5U U71C,≤ 0.026
20,C5U U71G,≤ 0.026
